Test results: PubChem BioAssay AID1159614 (National Center for Advancing Translational Sciences (NCATS), 2016)
The whole screen tested about 45,000 compounds, of which about 65 (0.1%) were called active. Calls follow the shape of the dose curve; as a rule, active = well fitted activation curve with a large enough effect; inconclusive = small, poorly fitted or top-dose-only effect; inactive = no such curve, though single readings can be large or run the other way. The list shows a part of the results.

molecular target: Galactocerebrosidase (Homo sapiens) (UniProt P54803); assay: A Novel Cell-Based Assay to Identify Small Molecules for B -Galactocerebrosidase; conditions: 145M-Twi-hGALC-G270D cells (Twitcher mouse brain line with human GALC G270D), HMU-beta-Gal fluorescence, 48 h; series mostly up to 57.5 µM; activation: at the top concentration; also: 0% is about no effect; nearly all actives have a fitted effect of over 65% in size
UniProt P54803, sequence (P54803 whole entry, looked up): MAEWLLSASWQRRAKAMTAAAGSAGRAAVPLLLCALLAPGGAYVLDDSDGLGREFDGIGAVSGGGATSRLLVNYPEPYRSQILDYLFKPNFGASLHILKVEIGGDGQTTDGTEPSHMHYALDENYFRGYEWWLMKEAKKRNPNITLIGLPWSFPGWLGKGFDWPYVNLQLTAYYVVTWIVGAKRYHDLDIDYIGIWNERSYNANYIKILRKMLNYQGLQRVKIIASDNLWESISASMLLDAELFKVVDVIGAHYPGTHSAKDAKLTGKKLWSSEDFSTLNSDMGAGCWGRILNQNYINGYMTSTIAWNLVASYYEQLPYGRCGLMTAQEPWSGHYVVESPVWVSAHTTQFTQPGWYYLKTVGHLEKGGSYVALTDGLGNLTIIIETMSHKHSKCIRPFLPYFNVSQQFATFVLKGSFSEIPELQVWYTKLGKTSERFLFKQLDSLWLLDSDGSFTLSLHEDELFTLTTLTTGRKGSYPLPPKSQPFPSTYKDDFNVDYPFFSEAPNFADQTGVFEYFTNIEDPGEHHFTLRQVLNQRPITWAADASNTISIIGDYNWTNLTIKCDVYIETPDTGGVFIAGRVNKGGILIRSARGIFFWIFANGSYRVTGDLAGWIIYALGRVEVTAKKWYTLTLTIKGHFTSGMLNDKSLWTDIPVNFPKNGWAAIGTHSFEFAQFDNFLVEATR
Outline: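 Brain-derived Twitcher mouse 145M-Twi cells stably expressing human GALC-G270D or wild-type GALC, treated live, then residual GALC activity read by fluorescence of HMU-b-Gal substrate (0.1 mM final) in citrate-phosphate buffer pH 5.2 with sodium taurocholate. Signal increase indicates enhancement.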

activation, inactive:
COc1cc(NC(=O)N2CCC3(CC2)Nc2cc(F)ccc2-n2cccc23)cc(OC)c1OC -13.8%
N#C/C(=C/c1cn(Cc2ccccc2Cl)c2ccccc12)C(=O)Nc1cccc(Cl)c1 -16.9%
COc1ccc(OC)c(C2C(C(=O)N3CCCCC3)=C(C)Nc3nc4ccccc4n32)c1 (stereo not drawn) -12.2%
CCc1ccc(-c2nn(CC(=O)Nc3ccccc3C)c3c2cnc2ccc(C)cc23)cc1 -11.2%
O=C(CSc1nc(-c2ccc(F)cc2)[nH]c1-c1ccccc1)Nc1ccccc1 -4.03%
Clc1ccc(OCc2nc3ccccc3n2Cc2ccccc2)c(Cl)c1 -44%
CCc1cccc(CC)c1-n1nnc2c(sc3nc(C)cc(C)c32)c1=O -37%
Cc1cc(=O)n(Cc2cccc(F)c2)c2c1c(C)nn2-c1cccc(F)c1 -18.7%
Cc1ccccc1CN1c2ccccc2-c2nc(SCC(N)=O)ncc2S1(=O)=O -3.52%
Cc1cccc(-c2nc(CSCC(=O)NCCc3ccc(Cl)cc3)c(C)o2)c1 -16%
Cc1ccc(CNC(=O)c2ccc(-c3nc(CS(=O)c4ccccc4)c(C)o3)cc2)cc1 (stereo not drawn) -21%
Cc1ccc(C)c(NC(=O)CN2C(=O)c3cccnc3Oc3ccc(C)cc32)c1 -10%
Cc1ccc(-c2nn(CC(=O)NC3CCCC3)c3c2cnc2ccccc23)cc1 -16.8%
COc1cc(/C=C/c2nc(C#N)c(NCCc3ccccc3)o2)cc(OC)c1OC -10.9%
CC(C)(C)C1CCc2c(sc3nnn(CCOc4ccccc4)c(=O)c23)C1 (stereo not drawn) -12%
Cc1ccc(C)c(NC(=O)c2nn(C)c3c2CS(=O)(=O)c2ccccc2-3)c1 -6.17%
COc1cc(NC(=O)c2nc3ccccc3nc2N2CCCCC2)cc(OC)c1OC -14.3%
CCOC(=O)N1CCc2c(sc3c2c(=O)n(CCc2ccccc2)c(=O)n3CC(=O)Nc2cccc(C)c2)C1 1.16%
O=C1N(c2ccccc2)c2ccccc2C1(Cc1ccncc1)Cc1ccncc1 -7.8%
COCCn1ccc2c(OCC(=O)Nc3ccccc3F)cccc2c1=O -4.04%
Cc1cc(C)n(-c2nc3cc(Cl)ccc3nc2Nc2ccc(CC(=O)O)cc2)n1 -11.3%
COc1ccc2nc(NC(=O)c3nc(SCc4ccccc4F)ncc3Cl)sc2c1 -10.8%
COC(=O)c1c(-c2cccs2)csc1NC(=O)c1ccc(OC)c(OC)c1 -10.2%
Cc1cccc(NC(c2ccccc2C)c2ccc3ccc(C)nc3c2O)n1 (stereo not drawn) -13.1%
CCNC(=O)C1CCN(c2nnc(C)c3c(C)n(-c4ccc(OC)cc4)nc23)CC1 -9.93%
COc1ccccc1CNC(=O)C1CCN(S(=O)(=O)c2ccc3c(ccn3C)c2)CC1 -14.2%
CCCCn1c(NCc2cc(Br)ccc2O)nc2ccccc21 -10.1%
COc1ccc(CNC(=O)Cn2nc(N3CCN(c4ccccc4)CC3)ccc2=O)c(OC)c1 -15%
Cc1ccc(-c2nc(CS(=O)(=O)CC(=O)NCCc3ccccc3)c(C)o2)cc1 -15.8%
Cc1ccc2c(c1)NC(=O)c1cccnc1O2 -0.44%
COc1ccc(S(=O)(=O)c2c(SC)nn(CC(=O)Nc3cccc(C)c3C)c2N)cc1 -12.7%
Cc1cccc(OCC(O)Cn2c(=N)n(CCN3CCCCC3)c3ccccc32)c1 (stereo not drawn) -12.7%
CCC(C)NC(=O)CSc1nc2c(sc3ccccc32)c(=O)n1CCc1ccc(OC)c(OC)c1 (stereo not drawn) -17.4%
CCN(CC)c1nc2c(S(=O)(=O)c3cccc(Cl)c3)nnn2c2ccsc12 -12.2%
CCn1cc(C(=O)NCc2ccc(C)cc2)c(=O)c2cc(S(=O)(=O)N(C)C3CCCCC3)ccc21 -6.22%
CCc1ccc(CN(Cc2ccco2)C(=O)COc2ccc(Cl)c(C)c2)cc1 -38.4%
CCC(C)Nc1oc(-c2ccc(COc3ccc(Cl)cc3)o2)nc1C#N (stereo not drawn) -10.7%
CC1=C(C(=O)Nc2ccccc2)C(c2ccncc2)n2nc(SCc3ccccc3F)nc2N1 (stereo not drawn) -3.58%
O=C(Nc1ccc(OCc2cc(=O)n3ccccc3n2)cc1)c1ccccc1Cl -9.4%
COc1cccc(OCc2cc(=O)n3c(-c4ccccc4)csc3n2)c1 -11.2%
COc1nc(-c2ccccc2)ccc1-c1noc(-c2ccccc2Br)n1 -11.7%
O=C(O)CNC(=O)c1ccccc1I -10.9%
CCN1CCN(C(=O)Cn2c(-c3cccs3)cc3ccccc32)CC1 -12.8%
O=C(CN1C(=O)COc2ccc(S(=O)(=O)N3CCCC3)cc21)N1CCN(c2cccc(C(F)(F)F)c2)CC1 8.87%
CCOc1ccccc1CNC(=O)CCc1c(C)nn(-c2ccc(N3CCOCC3)nn2)c1C -9.07%
CCN(CC)S(=O)(=O)c1ccc(C(=O)NCCSc2c(-c3ccc(C)cc3)[nH]c3ccccc23)cc1 -1.6%
COc1ccc(N2CCN(S(=O)(=O)CCNC(=O)COc3ccccc3F)CC2)cc1 -15.5%
COc1ccc(CCNC(=O)c2ccc3c(c2)N(Cc2ccccc2F)C(=O)c2ccccc2S3=O)cc1OC (stereo not drawn) -5.72%
COC(=O)c1cccc(NC(=O)c2nsc3ccccc23)c1 4.14%
Cc1cn2c(=O)cc(COC(=O)c3cccc(NC(=O)COc4ccccc4C)c3)nc2s1 -1.03%
Cc1ccc(NC(=O)CCNS(=O)(=O)c2cccc3nonc23)cc1Cl -23.6%
Cc1ccccc1C(=O)NCCc1csc(-c2ccc(C(F)(F)F)cc2)n1 -8.37%
Cc1ccccc1N1C(=O)c2cc(S(N)(=O)=O)c(Cl)cc2NC1C (stereo not drawn) -7.23%
COc1ccc(-n2c(-c3ccc(C)cc3)cc3c2CC(C)(C)CC3=O)c(OC)c1 -14.6%
Cc1ccc(Cc2nc3ccccc3nc2SCC(=O)N2CCCc3ccccc32)cc1 -20%
CCOC(=O)CSc1nc(-c2ccc(Cl)cc2)cc(C(F)(F)F)c1C#N -8.77%
Cc1ccc(C(=O)Oc2c(S(=O)(=O)c3ccccc3)c(C)nn2-c2ccccc2)cc1 2.16%
CN1C(=O)c2ccccc2Sc2ccc(NC(=O)NCc3cccc(Cl)c3)cc21 -15.2%
CC[C@H](NC(C)C)[C@H](O)c1ccc(O)c2[nH]c(=O)ccc12 -8.62%
O=c1oc2cc(O)ccc2cc1-c1nnc(Nc2ccccc2F)s1 -13.1%
Cc1c(-c2nc(-c3ccccc3F)no2)nnn1-c1cc(F)ccc1F -6.9%
Cc1ccc(CNC(=O)CSc2c3c(nc4cc(Cl)ccc24)CCCC3)cc1 -6.22%
CCCNC(=O)C(C)n1nc(C)c2c(C)n(-c3ccccc3)nc2c1=O (stereo not drawn) -13.6%
